# Results from publication PMC4336329 (PLoS ONE, 2015).
# The whole screen tested about 310,000 compounds, of which about 2,200 (0.71%) showed an effect of 50% or more. The effect is printed as a negative number. Some of the results follow.
# Molecular target: human ether-à-go-go-related gene (hERG) potassium channel (human, UniProt Q12809)
# Assay: primary screen, population patch clamp on CHO cells stably expressing hERG
# Chain of human ether-à-go-go-related gene (hERG) potassium channel (Q12809 whole entry, looked up): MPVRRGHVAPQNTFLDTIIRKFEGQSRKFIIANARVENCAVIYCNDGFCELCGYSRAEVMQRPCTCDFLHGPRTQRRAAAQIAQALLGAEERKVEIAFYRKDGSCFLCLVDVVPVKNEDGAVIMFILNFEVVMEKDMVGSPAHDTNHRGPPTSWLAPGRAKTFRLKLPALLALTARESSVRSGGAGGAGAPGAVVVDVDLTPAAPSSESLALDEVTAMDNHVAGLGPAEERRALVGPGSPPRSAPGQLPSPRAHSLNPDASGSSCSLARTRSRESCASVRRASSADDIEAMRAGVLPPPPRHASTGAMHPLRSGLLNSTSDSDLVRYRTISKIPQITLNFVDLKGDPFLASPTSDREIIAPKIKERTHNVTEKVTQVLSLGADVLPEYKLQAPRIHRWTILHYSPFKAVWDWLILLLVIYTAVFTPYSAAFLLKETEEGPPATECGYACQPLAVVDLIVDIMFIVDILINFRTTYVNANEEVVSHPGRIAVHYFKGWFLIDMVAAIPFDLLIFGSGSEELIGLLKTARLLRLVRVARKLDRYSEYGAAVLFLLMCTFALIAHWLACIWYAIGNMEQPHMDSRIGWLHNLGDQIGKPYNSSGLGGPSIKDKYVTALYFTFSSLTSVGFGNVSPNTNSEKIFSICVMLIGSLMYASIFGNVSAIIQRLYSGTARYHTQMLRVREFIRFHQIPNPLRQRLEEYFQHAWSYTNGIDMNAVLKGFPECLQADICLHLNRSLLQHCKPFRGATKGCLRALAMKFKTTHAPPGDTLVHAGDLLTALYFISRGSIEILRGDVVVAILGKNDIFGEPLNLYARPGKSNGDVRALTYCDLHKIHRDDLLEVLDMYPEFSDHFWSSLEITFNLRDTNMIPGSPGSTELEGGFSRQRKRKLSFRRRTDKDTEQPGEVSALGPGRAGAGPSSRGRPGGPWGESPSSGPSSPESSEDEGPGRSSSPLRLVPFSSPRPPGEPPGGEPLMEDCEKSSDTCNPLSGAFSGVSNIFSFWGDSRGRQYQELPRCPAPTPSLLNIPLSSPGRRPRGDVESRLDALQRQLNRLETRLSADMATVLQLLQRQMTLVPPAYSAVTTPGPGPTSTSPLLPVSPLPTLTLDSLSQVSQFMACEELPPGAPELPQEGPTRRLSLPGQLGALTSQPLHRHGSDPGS
row,SMILES,"hERG current change (%, negative = inhibition) at 1uM"
1,COc1ccc(NCC(=O)N2CCCC2)cc1Cl,10.6%
2,CC(C)(C)NC(=O)CN(C(=O)CS(=O)CC(=O)Nc1ccc(F)cc1)c1ccc2c(c1)OCCO2 (centres unmarked),11.7%
3,CC(C)C(CC(=O)N1CCCCC1)C1CCOC(C)(C)C1 (centres unmarked),2.97%
4,CCC1CCC(C(=O)NC(CCSC)C(=O)NCCN(CC(C)C)CC(C)C)CC1 (centres unmarked),5.99%
5,COc1ccc(OC)c(C2=C[N+](=O)C(C)(C)C(C)(C)N2[O-])c1,1.31%
6,COc1ccc(OC)c(C(=O)N(C)C2CCCN(Cc3ccccc3F)C2)c1 (centres unmarked),5.98%
7,CC(C)n1cnc2c(oc3ccccc32)c1=O,9.24%
8,O=c1[nH]nc(CNc2ccc(OC(F)(F)F)cc2)c2ccccc12,-14.8%
9,COc1ccc(N2CCN(CC(=O)Nc3c(C)cc(C)cc3C)CC2)cc1,5.13%
10,CC(CCc1ccccc1)NC(=O)c1ccco1 (centres unmarked),20.2%
11,COc1cccc(OC)c1OCCOc1ccc(C(=O)c2ccccc2)cc1,2.65%
12,Cc1ccc(-n2c(O)c(C=Nc3ccc4c(c3)OCO4)c3ccccc3c2=O)cc1C,-5.77%
13,CCn1c(COc2ccccc2C)nnc1SCC(=O)CC(=O)Nc1ccccc1OC,0.976%
14,N#C/C(=C\c1ccc2c(c1)OCO2)C(=O)NCc1ccco1,13%
15,CCOC(=O)C(=NC1CCCCC1)NNc1cccc(C(F)(F)F)c1,5.07%
16,COC(=O)c1ccc(CNC(=O)c2ccc(OCC(=O)N3CCOCC3)c(OC)c2)cc1,9.13%
17,Cc1cccc(N2CCN(C(=O)CNC(=O)c3ccccc3)CC2)c1C,2.99%
18,O=C(NCC(c1ccco1)N1CCN(c2ccccc2F)CC1)OCc1ccccc1 (centres unmarked),10.2%
19,CN(c1ccc(OCC(=O)OCC(=O)c2c(N)n(C)c(=O)n(C)c2=O)cc1)S(=O)(=O)c1ccc2ccccc2c1,1.42%
20,O=C(Nc1cccnc1)c1cnn2cccnc12,-8.49%
21,O=C(CSc1nnc(SCc2ccc(Cl)cc2)s1)N1CCN(C(=O)c2ccco2)CC1,-19.2%
22,CCC(C)NC(=O)CSc1n[nH]c(=O)n1CCc1ccccc1 (centres unmarked),4.75%

row,SMILES,"hERG current change (%, negative = inhibition) at 1uM"
1,CNC[C@H](O)[C@@H](O)[C@H](O)[C@H](O)CO.Cc1c(Nc2ncccc2C(=O)O)cccc1C(F)(F)F,15.5%
2,COCCCN1C(=O)C(=O)/C(=C(/O)c2ccc(C)cc2)C1c1ccccc1 (centres unmarked),13%
3,O=C(N/N=C/c1cc2c(cc1Cl)OCO2)c1ccccn1,15.5%
4,N#Cc1ccccc1S(=O)(=O)N1CCN(C(=O)c2cc(=O)[nH]c3ccccc23)CC1,12.5%
5,NC(=O)C1CC(=O)N(Cc2ccc3c(c2)OCO3)C(=Nc2ccccc2)S1 (centres unmarked),13.2%
6,Cc1ccc(CN2CCN(Cc3ccc4c(c3)OCCO4)CC2CCO)cc1 (centres unmarked),-3.94%
7,CNc1nc(-c2c(C)n(C)c3ccc(OC)cc23)cs1,13.2%
8,COc1ccc(-c2cc(C(=O)NC3CCCC3)c3ccccc3n2)cc1OC,8.22%
9,CCC(C)[C@@H]1NC(=O)N(CCCN2CCCC2=O)C1=O (some centres unmarked),12.7%
10,Cc1[nH]c2ccccc2c1/C=N/n1cnnc1,15.9%
11,CN1C(=O)CC(N2CCN(c3ccc(Cl)c(Cl)c3)CC2)C1=O (centres unmarked),1.54%
12,Cc1cccc(CCNCc2cc3cccc(C)c3[nH]c2=O)c1,-35.7%
13,CCCC(=O)c1cc(F)c(N2CCN(C(=O)OCC)CC2)cc1C,12.2%
14,COc1ccc(CCN(C)C(=O)Cc2ccc(-c3ccccc3)cc2)cc1OC,15.1%
15,CCOP(=O)(OCC)c1nc(-c2ccc(Cl)cc2Cl)oc1N1CCCCC1,1.96%
16,N#Cc1cc(F)c(N2CCNCC2)cc1Cl,12.7%
17,CCN1CCN(CC(O)COc2ccc(C(C)=O)cc2)CC1.Cl (centres unmarked),2.6%
18,CCOc1ccc(OCCOCCOc2c(Cl)cccc2Cl)cc1,6.65%
19,O=C(Nc1ccc2c(c1)Cc1ccccc1-2)c1cccnc1,-3.47%
20,O=c1cc(O)c2c(=O)n(Cc3ccccc3)c3ccccc3c2o1,10.4%
21,CS(=O)(=O)N(CC(=O)N1CCN(Cc2ccccc2)CC1)c1cccc(Cl)c1,-23%
22,CN(C)CCCN(C(=O)COc1ccccc1)c1nc2ccc(Cl)cc2s1.Cl,-14.2%
